These results are taken from PubChem BioAssay AID1508623 (National Center for Advancing Translational Sciences (NCATS), 2021).

In all, about 48,000 compounds went through this assay and about 450 (0.94%) were called active. Roughly 19% stayed inconclusive and do not appear here. The call rests on the fitted dose curve; in most records, active means well fitted inhibition curve with a large enough effect; inconclusive means small, poorly fitted or top-dose-only effect; inactive means no such curve, though single readings can be large or run the other way. The list shows a part of the results.

The assay can be described thus: Primary qHTS for Identification of Small Molecule Inhibitors of Huntingtin Promoter Activity. Further: nearly all actives have a fitted effect of over 50% in size. To be noted: HEK293 HTT promoter firefly luciferase reporter (activity 0% = vehicle and -100% = no light), 24 h; series mostly up to 57.5 µM; activity change, negative = inhibition: at the top concentration. The method in brief: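 Firefly luciferase signal from promoter-reporter HEK293 cells was scaled between vehicle (0%) and zero RLU (-100%). Compounds were tested at final concentrations of up to 57.5 uM over 24 h at 37 degrees C. PTC124 at 50 uM final served as control inhibitor.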
(In general: In qHTS, concentration-response curves come from the screen itself.)
Regarding `O=C(NCCc1ccc(Cl)cc1)c1cc2c(s1)-c1ccccc1OC2`, the “activity change, negative = inhibition” value is inactive: -12.5%.
For `CCOc1ccc(NC(=O)N2CCN(C(=O)c3nsc4ccccc34)CC2)cc1` the value was inactive: -13.9%.
For `Cc1ccc(NC(=O)CSc2nccn2-c2ccccc2)cc1` the value was inactive: 20.6%; for `O=C(COc1ccccc1Cl)Nc1ccc2nc(SCC(=O)N3CCOCC3)sc2c1`, inactive: -24.6%; for `O=S(=O)(c1ccc2nc(Nc3ccc(Br)cc3F)ccc2c1)N1CCCCC1`, inactive: -12.2%.
To `CCSc1nc2sc3c(c2c(=O)n1-c1ccc(C)c(Cl)c1)CCN(C(C)=O)C3` belongs inactive: -25.8%; to `Cc1ccccc1Cn1cc(S(=O)(=O)c2ccc(F)cc2)c(=O)c2cc3c(cc21)OCO3`, inactive: -9.68%; to `Cc1cc(=O)n(Cc2ccc(Br)cc2F)c2c1c(C)nn2-c1ccccc1`, inactive: 0%.
With `Cc1ccc(NC(=O)Cn2c(=O)n(CCCCC(=O)NCCc3ccccc3)c(=O)c3ccccc32)cc1`, the “activity change, negative = inhibition” value is inactive: -6.73%.
For `O=C(CCNS(=O)(=O)c1ccc2c(c1)CCCC(=O)N2)NCc1ccc(Cl)cc1` the value was inactive: -29%; for `Cc1cc(Cl)ccc1OCCSc1nnc(-c2cccs2)o1`, inactive: -20% [at 11.5 µM]; for `CCc1nccn1S(=O)(=O)c1cc(Br)ccc1Br`, inactive: -1.7%.
For `COc1ccc(C)cc1NC(=O)CN(C)S(=O)(=O)c1ccc2[nH]c(=O)oc2c1` the value was inactive: -12.6%; for `COC(=O)c1ccc2c(c1)N(CC(=O)Nc1ccc(C)cc1Cl)C(=O)c1ccccc1S2`, inactive: -17.5%; for `COC(=O)c1sccc1S(=O)(=O)N(CC(=O)Nc1cc(F)ccc1F)c1ccc(C)c(C)c1`, inactive: -28.3%.
To `CCc1ccc(-c2[nH]nc3nc(-c4cc(OC)ccc4OC)cc(C(=O)O)c23)cc1` belongs inactive: -8.62%.
`CCn1c(C)c(C)c2cc(C(=O)NCCc3cc(OC)ccc3OC)ccc21`: the “activity change, negative = inhibition” value was inactive: -11.1%.
On to `Cc1oc2ncn(CC(C)C)c(=O)c2c1C(=O)NCCCN(C)Cc1ccccc1`, for which the “activity change, negative = inhibition” value was inactive: 1.07%.
Take `O=C(Nc1cccc(C(F)(F)F)c1)C1CCCN(S(=O)(=O)c2cccc3nonc23)C1` (configuration not stated): the “activity change, negative = inhibition” value is inactive: -6.04%.
Regarding `Cc1oc2c(C)c3oc(=O)c(CCC(=O)N4CCCCC4)c(C)c3cc2c1C`, the “activity change, negative = inhibition” value was inactive: -13.3%.
For `COc1cc(-c2nnc(SCCOc3ccccc3)o2)cc(OC)c1OC` the value was inactive: 1.16%; for `COc1cc(C(C)C)c(Oc2cnc(NC(CO)CO)nc2N)cc1I`, inactive: -11.5%.
To `CCOC(=O)Cn1c(=O)oc2cc(S(=O)(=O)Nc3ccccc3F)ccc21` belongs inactive: -17.2%; to `CCOC(=O)c1c(SCC(=O)Nc2cccc(C)c2C)nc(=O)[nH]c1C`, inactive: -20.1%.
As to `COc1ccc(-c2noc(-c3ccc(NCCc4ccccc4)c([N+](=O)[O-])c3)n2)cc1`, the “activity change, negative = inhibition” value is inactive: -6.84%.
Consider `O=C(Cn1cc(S(=O)(=O)Cc2ccccc2Cl)c2ccccc21)Nc1ccc(F)cc1F`, for which the “activity change, negative = inhibition” value was inactive: -12.8%.
With `CCOc1ccc(CNC(=O)c2ccc3c(c2)N(Cc2ccccc2)CCS3)cc1`, the “activity change, negative = inhibition” value is inactive: -20.5%.
Turning to `O=C(Cn1ncc2c(Cl)cccc21)NCc1cccc(F)c1`, the “activity change, negative = inhibition” value was inactive: 6.71%.
Turning to `CC(=O)Nc1ccc2nc(SCCOc3ccccc3Cl)sc2c1`, the “activity change, negative = inhibition” value is inactive: -11%.
For `CCOC(=O)c1c(C)[nH]c(C)c1S(=O)(=O)N(C)CC(=O)Nc1ccc(C)c(F)c1` the value was inactive: -14.2%; for `CCCCN(c1ccccc1)c1ncnc2c1cnn2-c1cccc(C)c1`, inactive: 0%; for `COC(=O)c1cc2sccc2n1Cc1nc(-c2ccc(C)cc2)oc1C`, inactive: -37.4%.
To `CCc1ccccc1NC(=O)c1ccc2c(c1)c(C)c(C)n2Cc1ccccc1` belongs inactive: -12.3%.
For `CN(C(=O)CSc1nc2ccccc2n1CC(=O)N(C)C1CCCCC1)c1ccc(F)cc1`, the “activity change, negative = inhibition” value was inactive: -17.7%.
For `CCc1ccc(S(=O)(=O)c2cn(Cc3ccc(OC)cc3)c3cc(OC)c(OC)cc3c2=O)cc1`, the “activity change, negative = inhibition” value was inactive: -17.2%.
`O=C(COc1ccc(Br)cc1)Nc1ccc(C(=O)OC2CCCCC2)cc1`: the “activity change, negative = inhibition” value is inactive: 10.8%.
Turning to `CCOc1ccc(NC(=O)Cn2c(=O)n(-c3ccccc3)c(=O)c3c4c(sc32)CCCC4)cc1`, the “activity change, negative = inhibition” value was inactive: -1.11%.
To `CCc1nnc2c3ccccc3nc(N3CCN(c4cc(Cl)ccc4C)CC3)n12` belongs inactive: -24.2% [at 11.5 µM].
For `Cc1c(Cl)cccc1NC(=O)Cn1c(=O)n(Cc2ccco2)c(=O)c2oc3ccccc3c21` the value was inactive: -4.46%; for `COC(=O)c1c(Oc2ccc(Br)cc2)nnc(-c2ccccc2)c1-c1ccccc1`, inactive: -17.4%.
For `CCc1nc2nc(C)cc(Nc3ccc(F)c(Cl)c3)n2n1` the value was inactive: -37%; for `Cc1ccc(CN2CCC(CNC(=O)Nc3cccc(C)c3C)C2)cc1` (configuration not stated), inactive: -2.84%.
On to `O=C1CC(c2ccc(Br)cc2)c2c(ccc3ccccc23)N1` (configuration not stated), for which the activity change, negative = inhibition is inactive: 56% [at 11.5 µM].
`Cc1cccc(C(=O)Nc2ccccc2OCc2cc(=O)n3cc(C)ccc3n2)c1`: the “activity change, negative = inhibition” value is inactive: 1.83%.
To `CCN(CC)CCCNc1oc(-c2ccc(OC)cc2)nc1C#N` belongs inactive: -5.82%; to `COc1ccccc1-c1c(C)nn2c(N3CCN(c4ccc(F)cc4)CC3)cc(C)nc12`, inactive: -9.03%.
For `CC(Oc1ccc(O)cc1)(P(=O)(O)O)P(=O)(O)O` the value was inactive: -2.2%; for `CC(C)n1c(=O)c2oc3ccccc3c2n(CC(=O)Nc2ccccc2Cl)c1=O`, inactive: 1.73%; for `COc1ccc(N2CC(NC(=O)c3cccs3)CC2=O)cc1OC` (configuration not stated), inactive: -2.89%.
For `O=C(Nc1ccc(F)cc1)c1ccc(-n2cnnc2)cc1` the value was inactive: -0.48%; for `CCc1ccc(-c2[nH]c3c(c2-c2c(-n4cccc4)n(C)c(=O)[nH]c2=O)c(=O)[nH]c(=O)n3C)cc1`, inactive: -2.23%.
With `O=C(Nc1nnc(S(=O)(=O)N2CCCCC2)s1)c1ccc(Cl)cc1`, the “activity change, negative = inhibition” value was inactive: -12.3%.
As to `O=C1NC(=O)C(c2ccccc2[N+](=O)[O-])=C1Nc1ccc(O)c(Cl)c1`, the “activity change, negative = inhibition” value was inactive: -18.3%.
To `CC(=O)Nc1ccc(NS(=O)(=O)c2ccc3c(c2)CCCN3C(C)=O)cc1` belongs inactive: -3.52%.
Take `COc1ccc(-n2ncc(C(=O)Nc3ccc(C)cc3Cl)c2C2CCN(C(=O)OC(C)(C)C)CC2)cc1`: the “activity change, negative = inhibition” value is inactive: -6.78%.
For `CCN(CC)CCNC(=O)C1CCCN(c2nnc(C)c3c(C)n(-c4ccc(Cl)cc4)nc23)C1` (configuration not stated), the “activity change, negative = inhibition” value is inactive: -21.7%.
For `CCOc1ccc(-c2cn3c(n2)sc2cc(C(=O)NCCC4=CCCCC4)ccc23)cc1`, the “activity change, negative = inhibition” value was inactive: -4.19%.
With `CCOc1ccc(NC(=O)CSc2nnc(CC)c(CC)n2)cc1`, the “activity change, negative = inhibition” value is inactive: -21.4%.
Take `Cc1cccc(C)c1NC(=O)C1CCCN(S(=O)(=O)c2c(C)noc2/C=C/N(C)C)C1` (configuration not stated): the “activity change, negative = inhibition” value was inactive: -10.6%.
On to `COc1ccccc1CNC(=O)c1ccc(NC(=O)N2CC(C)Sc3ccccc32)cc1` (configuration not stated), for which the “activity change, negative = inhibition” value is inactive: -27%.
To `COc1ccc(S(=O)(=O)NCC(c2ccco2)S(=O)(=O)c2ccc(C)cc2)cc1C` (configuration not stated) belongs inactive: -19.4%; to `Cc1ccc(-c2noc(-c3cccnc3NCc3ccc(Cl)cc3)n2)cc1`, inactive: 16.5%.
